Assay results taken from PubChem BioAssay (NCATS).
“And” between values parts separate entries of the source, which are not always exact repeats. Identical values can stand only once. The inconclusive results got no clear call from the source; some entries with a clear call stand among them for comparison. Potencies beside an inconclusive call are fits to weak or partial responses and may not hold up. The source made the active and inactive calls. Calls come from the whole dose curve; as a rule, active = well fitted curve in the direction sought with a large enough effect; inconclusive = small, poorly fitted or top-dose-only effect, or another doubt; inactive = no such curve, though single readings can be large; an effect the other way counts as inactive or inconclusive.

Experiments:
[1] = qHTS of pediatric cancer cell lines to identify multiple opportunities for drug repurposing: Primary screen for DAOY cells (AID 1347090); conditions: DAOY medulloblastoma viability, CellTiter-Glo luminescence, 48 h; activity change, negative = cytotoxic: at 46 µM (top of the series); note: nearly all actives have a fitted effect of over 55% in size
Procedure, shortened: (§1)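 Cell viability, CellTiter-Glo luminescence; 500-1,000 cells/well, 8- or 11-point titration, 48 h compound exposure at 37 degrees C, 5% CO2. Controls: DMSO neutral, bortezomib 2.3 µM final as positive.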

[2] = qHTS of pediatric cancer cell lines to identify multiple opportunities for drug repurposing: Primary screen for A673 cells (AID 1347092); conditions: A673 Ewing sarcoma viability, CellTiter-Glo ATP luminescence, 48 h; activity change, negative = cytotoxic: at 46 µM (top of the series); note: nearly all actives have a fitted effect of over 45% in size
Procedure, shortened: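 A673 cells (500-1,000 cells/well in growth media) were pre-incubated 5 h at 37 degrees C, then exposed to compounds for 48 h. Viability was read as CellTiter-Glo luminescence; concentration-response curves came directly from the primary screen.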

[3] = qHTS of pediatric cancer cell lines to identify multiple opportunities for drug repurposing: Primary screen for SK-N-MC cells (AID 1347093); conditions: SK-N-MC viability, CellTiter-Glo luminescence, 48 h; activity change, negative = cytotoxic: at 46 µM (top of the series)
Procedure, shortened: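 Metabolically active cells were quantified by ATP-dependent luminescence (CellTiter-Glo, 15 min at room temperature) following 48 h treatment. Cells had been plated at 500-1,000 per well and settled for 5 h beforehand.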

[4] = qHTS of pediatric cancer cell lines to identify multiple opportunities for drug repurposing: Primary screen for BT-37 cells (AID 1347094)
Procedure, shortened: (§2)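 Cells seeded at 500-1,000 cells/well in growth media, rested 5 hours at 37 degrees C, 5% CO2, then dosed; MIPE compounds at 11-point (from 0.78 nM) and NPC at 8-point (from 0.59 nM) final concentrations. Viability by CellTiter-Glo luminescence after 48 hours.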

[5] = qHTS of pediatric cancer cell lines to identify multiple opportunities for drug repurposing: Primary screen for SK-N-SH cells (AID 1347098); note: nearly all actives have a fitted effect of over 65% in size
Procedure, shortened: (§3)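 Cells (500-1,000/well) rested 5 h, then received compounds for 48 h; metabolically active cells were measured by CellTiter-Glo luminescence. Final concentrations spanned up to 46 µM (MIPE, 11-point) or 0.59 nM-46 µM (NPC, 8-point) in primary screens, 11-point in follow-ups.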

[6] = qHTS of pediatric cancer cell lines to identify multiple opportunities for drug repurposing: Primary screen for NB1643 cells (AID 1347099); note: nearly all actives have a fitted effect of over 50% in size
Procedure, shortened: as §2

[7] = qHTS of pediatric cancer cell lines to identify multiple opportunities for drug repurposing: Primary screen for LAN-5 cells (AID 1347100); conditions: LAN-5 neuroblastoma viability, CellTiter-Glo luminescence, 48 h; activity change, negative = cytotoxic: at 46 µM (top of the series)
Procedure, shortened: as §3

[8] = qHTS of pediatric cancer cell lines to identify multiple opportunities for drug repurposing: Primary screen for OHS-50 cells (AID 1347103); note: nearly all actives have a fitted effect of over 40% in size
Procedure, shortened: as §3

[9] = qHTS of pediatric cancer cell lines to identify multiple opportunities for drug repurposing: Primary screen for RD cells (AID 1347104); note: nearly all actives have a fitted effect of over 55% in size
Procedure, shortened: as §2

[10] = qHTS of pediatric cancer cell lines to identify multiple opportunities for drug repurposing: Primary screen for Rh30 cells (AID 1347107); note: nearly all actives have a fitted effect of over 75% in size
Procedure, shortened: as §3

[11] = qHTS of pediatric cancer cell lines to identify multiple opportunities for drug repurposing: Primary screen for Rh41 cells (AID 1347108); note: nearly all actives have a fitted effect of over 70% in size;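 for activity change, negative = cytotoxic: luminescence drop marks cytotoxic hits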
Procedure, shortened: as §2

[12] = qHTS of pediatric cancer cell lines to identify multiple opportunities for drug repurposing: Primary screen for U-2 OS cells (AID 1347096); note: nearly all actives have a fitted effect of over 50% in size
Procedure, shortened: as §3

[13] = qHTS of pediatric cancer cell lines to identify multiple opportunities for drug repurposing: Primary screen for MG 63 (6-TG R) cells (AID 1347105); conditions: MG 63 (6-TG R) viability, CellTiter-Glo, 48 h; activity change, negative = cytotoxic: at 46 µM (top of the series); note: nearly all actives have a fitted effect of over 50% in size
Procedure, shortened: as §2

[14] = qHTS of pediatric cancer cell lines to identify multiple opportunities for drug repurposing: Primary screen for control Hh wild type fibroblast cells (AID 1347106); note: nearly all actives have a fitted effect of over 55% in size
Procedure, shortened: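 Viability after 48 h compound treatment at 37C, 500-1,000 cells/well, read as ATP luminescence with CellTiter-Glo. Primary screens used 11-point (MIPE, 0.78 nM-46 µM) or 8-point (NPC, 0.59 nM-46 µM) final concentrations; follow-up screens used 11-point dilutions.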

[15] = qHTS of pediatric cancer cell lines to identify multiple opportunities for drug repurposing: Primary screen for BT-12 cells (AID 1347101); note: nearly all actives have a fitted effect of over 25% in size
Procedure, shortened: as §3

[16] = qHTS of pediatric cancer cell lines to identify multiple opportunities for drug repurposing: Primary screen for Saos-2 cells (AID 1347097); note: nearly all actives have a fitted effect of over 40% in size
Procedure, shortened: as §2

[17] = qHTS of pediatric cancer cell lines to identify multiple opportunities for drug repurposing: Primary screen for NB-EBc1 cells (AID 1347095)
Procedure, shortened: as §2

[18] = qHTS of pediatric cancer cell lines to identify multiple opportunities for drug repurposing: Confirmatory screen for NB1643 cells (AID 1347109); conditions: NB1643 neuroblastoma cell viability; activity change, negative = cytotoxic: at 45.9 µM (top of the series); note: nearly all actives have a fitted effect of over 45% in size
Procedure, shortened: as §3

[19] = qHTS of pediatric cancer cell lines to identify multiple opportunities for drug repurposing: Primary screen for SJ-GBM2 cells (AID 1347091)
Procedure, shortened: as §1

[20] = qHTS of pediatric cancer cell lines to identify multiple opportunities for drug repurposing: Primary screen for Rh18 cells (AID 1347102); note: nearly all actives have a fitted effect of over 65% in size
Procedure, shortened: as §3
Potency is the fitted concentration of half-maximal effect; tags give direction and shape of the fitted curve.

SMILES | Potency [1] | Potency [2] | Potency [3] | Potency [4] | Potency [5] | Potency [6] | Potency [7] | Potency [8] | Potency [9] | Potency [10] | Potency [11] | Potency [12] | Potency [13] | Potency [14] | Potency [15] | Potency [16] | Potency [17] | Potency [18] | Potency [19] | Potency [20]
Clc1ccc2ncc(-c3cccc(NC4CNC4)n3)n2c1 | inconclusive: 18.7 µM [cytotoxic, single point] | active: 4.69 µM | active: 7.43 µM | active: 17.2 µM | active: 3.41 µM | inconclusive: 5.9 µM [cytotoxic, full curve] | active: 16.6 µM | inconclusive: 48.5 µM [cytotoxic, single point] | inconclusive: 16.6 µM [cytotoxic, partial curve] | inconclusive: 18.7 µM [cytotoxic, partial curve] | inconclusive: 18.7 µM [cytotoxic, partial curve] |  |  |  |  |  |  |  |  | 
COc1c(C)cnc(Cn2cnc3c(Cl)nc(N)nc32)c1C | inconclusive: 0.235 µM [cytotoxic, full curve] | active: 0.235 µM | active: 0.132 µM | inconclusive: 0.217 µM [cytotoxic, full curve] |  |  | active: 0.166 µM |  | inconclusive: 0.166 µM [cytotoxic, full curve] |  |  | inconclusive: 0.235 µM [cytotoxic, full curve] | inconclusive: 0.743 µM [cytotoxic, full curve] | inconclusive: 2.09 µM [cytotoxic, full curve, poor fit] |  |  |  |  |  | 
CC(=O)NCCC(=O)N[C@@H](CCC(N)=O)C(=O)N[C@@H](CO)C(=O)N[C@@H](CCC(N)=O)C(=O)N[C@@H](CCC(N)=O)C(=O)N[C@H](C(=O)N[C@@H](Cc1ccccc1)C(=O)N[C@]1(C)CCCCCCC=CCCC[C@@](C)(C(=O)N[C@@H](CCC(N)=O)C(=O)N[C@@H](CC(N)=O)C(N)=O)NC(=O)[C@H](CC(C)C)NC(=O)[C@H](CC(C)C)NC(=O)[C@@H](CCCNC(=N)N)NC(=O)[C@H](Cc2c[nH]c3ccccc23)NC(=O)[C@H](CC(C)C)NC(=O)[C@H](CC(N)=O)NC1=O)[C@H](C)O | inconclusive: 18.7 µM [cytotoxic, single point] | inconclusive: 3.72 µM [cytotoxic, full curve, poor fit] |  | inconclusive: 24.3 µM [cytotoxic, partial curve] | inactive | inconclusive: 29.6 µM [cytotoxic, single point] | inconclusive: 20.9 µM [cytotoxic, single point] |  | inconclusive: 14.8 µM [cytotoxic, partial curve] |  |  |  |  |  | inconclusive: 27.3 µM [cytotoxic, partial curve] |  |  |  |  | 
CCOc1cc(C(=O)Nc2ccc(Cl)c(-c3nc4ccccc4[nH]3)c2)cc(OCC)c1OCC | inconclusive: 11.8 µM [cytotoxic, partial curve] | inconclusive: 14.8 µM [cytotoxic, partial curve] |  | inconclusive: 19.3 µM [cytotoxic, partial curve, poor fit] | active: 5.41 µM | active: 11.8 µM | inconclusive: 18.7 µM [cytotoxic, partial curve] |  |  |  | inconclusive: 14.8 µM [cytotoxic, partial curve] | inconclusive: 5.9 µM [cytotoxic, full curve, poor fit] |  | inconclusive: 8.33 µM [cytotoxic, full curve, poor fit] |  | inconclusive: 9.35 µM [cytotoxic, partial curve] |  |  |  | 
CCC(c1ccc(O)cc1)C(CC)c1ccc(O)cc1 (configuration not stated) | active: 0.59 µM | inconclusive: 2.35 µM [cytotoxic, partial curve, poor fit] |  | inconclusive: 24.3 µM [cytotoxic, partial curve] | inactive | inconclusive: 26.4 µM [cytotoxic, single point] | inactive | active: 27.3 µM | inconclusive: 2.96 µM [cytotoxic, full curve, poor fit] |  |  | inconclusive: 18.7 µM [cytotoxic, partial curve, poor fit] | inconclusive: 1.48 µM [cytotoxic, full curve] |  | inconclusive: 30.6 µM [cytotoxic, single point] | inconclusive: 29.6 µM [cytotoxic, single point] | inconclusive: 11.8 µM [cytotoxic, partial curve] | inconclusive: 36.9 µM [cytotoxic, partial curve, poor fit] |  | 
C[C@]12CC[C@@H]3c4ccc(O)cc4CC[C@H]3[C@H]1[C@@H](O)[C@@H](O)[C@H]2O | inconclusive: 37.2 µM [cytotoxic, single point] | active: 14.8 µM | inconclusive: 37.2 µM [cytotoxic, partial curve, poor fit] |  | inconclusive: 38.3 µM [cytotoxic, single point] | inconclusive: 33.2 µM [cytotoxic, single point] | inconclusive: 37.2 µM [cytotoxic, single point] | inconclusive: 27.3 µM [cytotoxic, partial curve, poor fit] | inconclusive: 33.2 µM [cytotoxic, single point] | inactive | inconclusive: 11.8 µM [cytotoxic, partial curve] |  | inconclusive: 23.5 µM [cytotoxic, partial curve, poor fit] | inconclusive: 2.96 µM [cytotoxic, full curve] |  | inconclusive: 14.8 µM [cytotoxic, partial curve, poor fit] |  |  |  | 
COc1cc2c(cc1OC)CN(CCc1ccc(NC(=O)c3cccc4c(=O)c5cccc(OC)c5[nH]c34)cc1)CC2 | inconclusive: 37.2 µM [cytotoxic, single point] | active: 4.69 µM |  | inactive |  |  |  |  | inconclusive: 16.6 µM [cytotoxic, partial curve] | inconclusive: 33.2 µM [cytotoxic, single point] | inconclusive: 23.5 µM [cytotoxic, partial curve] |  | inactive |  |  |  |  |  |  | 
CC(C)(Sc1ccc(CCN(CCCCC2CCCCC2)C(=O)NC2CCCCC2)cc1)C(=O)O | inconclusive: 23.5 µM [cytotoxic, single point] |  |  |  | inconclusive: 24.1 µM [cytotoxic, partial curve] |  |  | inactive | inconclusive: 20.9 µM [cytotoxic, partial curve] |  | inconclusive: 7.43 µM [cytotoxic, partial curve, poor fit] |  | inconclusive: 37.2 µM [cytotoxic, single point] |  | inconclusive: 24.3 µM [cytotoxic, partial curve] | active: 23.5 µM |  |  | inconclusive: 29.6 µM [cytotoxic, single point] | 
Cc1cccc(CN2CCN(C(c3ccccc3)c3ccc(Cl)cc3)CC2)c1 (configuration not stated) | inconclusive: 21.1 µM [cytotoxic, single point] and inconclusive: 18.7 µM [cytotoxic, partial curve, poor fit] | inconclusive: 33.5 µM [cytotoxic, single point] |  | inconclusive: 19.5 µM [cytotoxic, single point] and inconclusive: 24.3 µM [cytotoxic, partial curve] | inconclusive: 24.1 µM [cytotoxic, partial curve] |  | inconclusive: 18.7 µM [cytotoxic, partial curve] | active: 24.6 µM and active: 24.3 µM | inconclusive: 26.6 µM [cytotoxic, single point] and inconclusive: 33.2 µM [cytotoxic, single point] | inactive | inconclusive: 18.7 µM [cytotoxic, partial curve] | inconclusive: 23.5 µM [cytotoxic, partial curve, poor fit] | inconclusive: 16.8 µM [cytotoxic, partial curve, poor fit] |  | inconclusive: 38.9 µM [cytotoxic, single point] and inconclusive: 24.3 µM [cytotoxic, partial curve] | inconclusive: 26.6 µM [cytotoxic, single point] and inconclusive: 18.7 µM [cytotoxic, partial curve] | inconclusive: 7.5 µM [cytotoxic, partial curve] and active: 18.7 µM |  |  | inconclusive: 11.8 µM [cytotoxic, partial curve]
OCCn1cc(-c2ccc3c(c2)CCC3=NO)c(-c2ccncc2)n1 | inconclusive: 18.7 µM [cytotoxic, single point] | inconclusive: 18.7 µM [cytotoxic, single point] | inconclusive: 37.2 µM [cytotoxic, single point] | inconclusive: 21.7 µM [cytotoxic, partial curve] | active: 19.2 µM |  |  |  | inconclusive: 14.8 µM [cytotoxic, partial curve] | inconclusive: 16.6 µM [cytotoxic, partial curve] | inactive | inactive |  | inconclusive: 14.8 µM [cytotoxic, partial curve] | inconclusive: 17.2 µM [cytotoxic, partial curve, poor fit] |  |  |  |  | 
